The whole screen tested about 310,000 compounds, of which about 2,200 (0.71%) showed an effect of 50% or more. The effect is printed as a negative number. This is one part of the list.
Target: human ether-à-go-go-related gene (hERG) potassium channel (human, UniProt Q12809)
Assay: primary screen, population patch clamp on CHO cells stably expressing hERG

human ether-à-go-go-related gene (hERG) potassium channel, sequence (Q12809 whole entry, looked up): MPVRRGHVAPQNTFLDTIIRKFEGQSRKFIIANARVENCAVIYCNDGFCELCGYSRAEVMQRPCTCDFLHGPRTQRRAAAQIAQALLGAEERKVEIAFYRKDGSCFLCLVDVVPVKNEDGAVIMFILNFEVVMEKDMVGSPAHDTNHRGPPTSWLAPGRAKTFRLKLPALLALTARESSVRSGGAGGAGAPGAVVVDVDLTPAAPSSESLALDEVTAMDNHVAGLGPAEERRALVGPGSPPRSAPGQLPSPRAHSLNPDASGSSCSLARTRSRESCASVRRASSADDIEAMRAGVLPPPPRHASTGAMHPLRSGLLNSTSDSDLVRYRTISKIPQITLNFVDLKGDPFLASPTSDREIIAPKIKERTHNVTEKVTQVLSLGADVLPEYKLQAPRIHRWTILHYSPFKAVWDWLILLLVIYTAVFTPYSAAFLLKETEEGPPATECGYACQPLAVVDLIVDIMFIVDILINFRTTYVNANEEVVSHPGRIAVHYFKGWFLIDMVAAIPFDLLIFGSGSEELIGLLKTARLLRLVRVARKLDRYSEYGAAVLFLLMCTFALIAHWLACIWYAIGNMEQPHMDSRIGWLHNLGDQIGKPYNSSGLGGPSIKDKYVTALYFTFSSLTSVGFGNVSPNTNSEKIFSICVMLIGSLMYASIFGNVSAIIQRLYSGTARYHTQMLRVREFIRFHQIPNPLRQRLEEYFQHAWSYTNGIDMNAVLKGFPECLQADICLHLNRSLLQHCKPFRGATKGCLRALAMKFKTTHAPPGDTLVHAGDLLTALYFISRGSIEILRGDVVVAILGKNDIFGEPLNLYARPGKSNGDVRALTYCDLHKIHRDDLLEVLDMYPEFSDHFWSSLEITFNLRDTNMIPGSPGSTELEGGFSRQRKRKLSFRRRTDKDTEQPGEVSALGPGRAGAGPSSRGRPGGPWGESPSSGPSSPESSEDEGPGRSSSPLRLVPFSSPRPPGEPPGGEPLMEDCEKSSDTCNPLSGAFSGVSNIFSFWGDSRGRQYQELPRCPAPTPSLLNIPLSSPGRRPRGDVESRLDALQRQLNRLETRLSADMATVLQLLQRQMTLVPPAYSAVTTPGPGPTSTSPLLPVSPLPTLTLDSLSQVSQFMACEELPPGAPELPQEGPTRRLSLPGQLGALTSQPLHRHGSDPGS

Structure (SMILES)	hERG current change (%, negative = inhibition) at 1uM [%]
COc1ccc(C(=O)CC(=O)O)c2c1C=CC(C)(C)O2	4.4
Clc1cccc(Cl)c1Cl	11
CC(=O)Nc1ccc(S(=O)(=O)N2CCCN(S(=O)(=O)c3ccc(C)cc3)CC2)cc1	-10.1
Cc1nn(-c2ccccc2)c(C)c1/C=N/NC(=O)c1cc(-c2ccc(Cl)s2)[nH]n1	15.7
CCOc1cc2[nH]c(=O)n(Cc3ccc(C(=O)NCCCN4CCC(C)CC4)cc3)c(=O)c2cc1OCC	-0.543
CC(C)C(C(=O)Nc1ccc(S(=O)(=O)N2CCOCC2)cc1)N1C(=O)c2ccccc2C1=O (stereo not shown)	-3.57
N#Cc1ccc(C(=O)Nn2cnnc2)cc1	5.85
COc1cccc(CNC(=O)c2cccc(S(=O)(=O)N3CCN(c4ccc(F)cc4)CC3)c2)c1	10.6
Cc1nn(-c2ccc(N3CCCCC3)nn2)c(C)c1CCC(=O)Nc1ccc(F)cc1	4.57
N#Cc1c(Nc2ccccc2Cl)s[nH]c1=O	9.71
O=C(O)C1CCCN1S(=O)(=O)c1cccc2nsnc12 (stereo not shown)	17
COc1ccccc1CCNC(=O)NC1CCCCC1	3.62
O=C(COC(=O)COc1ccc(Br)cc1)NCCC1=CCCCC1	1.54
COC(=O)[C@H](C)NC(=O)NCCC1=CCCCC1	15.4
CN1C(=O)NC(=O)/C(=C\C=C\c2ccccc2[N+](=O)[O-])C1=O	1.99
COc1ccccc1N(CC(=O)NCCSCc1cccc(C)c1)S(=O)(=O)c1ccccc1	2.44
O=C(Nc1ccc(C(=O)N2CCCCC2)cc1)c1ccc(Br)cc1	9.33
CC(C)CCNC(=O)CCc1nnc2ccc(N3CCC(C)CC3)nn12	8.56
CCC1CN(C(=O)NCc2ccccc2)c2cc(Cl)ccc2O1 (stereo not shown)	11.2
O=C(Nc1ccc(C(=O)N2CCOCC2)cc1)Nc1cccc2ccccc12	12.8
Cc1cccc(C)c1OCc1cc(C(=O)N2CCN3CCCC3C2)no1 (stereo not shown)	-0.209
COC(=O)C1=C(c2ccc(Cl)c(C(F)(F)F)c2)C[C@@H]2CC[C@H]1N2C(=O)NCc1ccco1	-5.46

Structure (SMILES)	hERG current change (%, negative = inhibition) at 1uM [%]
COc1ccc(-n2c(O)c(/C(C)=N/N3CCCCCC3)c(=O)[nH]c2=O)cc1	0.871
CC(C)c1ccc(NC2CCCN(C(=O)CN3CCOC3=O)C2)cc1 (stereo not shown)	5.63
COc1ccc(C(=O)N2CCc3[nH]nc(-c4ccccc4)c3C2)cc1	6.29
CC(C)c1nnc(NC(=O)C2CCCO2)s1 (stereo not shown)	10.8
Cl.c1ccc(COc2cccc(CNCc3ccccn3)c2)cc1	-7.26
COc1ccc2c(c1)N(C)/C(=C1/SC(=S)N(NC(C)=O)C1=O)S2	7.8
Cn1c(SCc2ccccc2C#N)nnc1-c1ccncc1	11.5
Cn1c(=O)cc(SCC(=O)N2CCCC2)c2cc(Cl)ccc21	9.41
COc1cc2ccccc2cc1C(=O)NNC(=O)c1ccccc1O	9.39
CCOC(=O)CSc1nnc(Cn2nnc(-c3ccccc3)n2)n1C	19.2
Cn1c(=O)[nH]c(=O)c2[nH]c(N(Cc3ccccc3)Cc3ccccc3)nc21	-1.43
O=C(COC(=O)C1=NNC(=O)CC1)NCCc1ccccc1	17
CN1CCN(NC(=O)c2cc([N+](=O)[O-])cc([N+](=O)[O-])c2)CC1	-1.47
O=S(=O)(/N=C(\Sc1ccccc1)c1ccccc1)c1ccc(Cl)cc1	14.1
COc1cc(C(=O)NCCc2cc3c(OC)ccc(OC)c3[nH]c2=O)cc(OC)c1OC	3.99
Cc1ccc(OP(=O)(Nc2cccc(C)c2)Oc2ccc(C)cc2)cc1	11.2
CC/C(Cc1ccccc1)=N\NC(=O)c1cc(C)oc1C	3.99
Cc1cc(S(=O)(=O)NC2CCCC2)ccc1-n1cnnn1	13.5
CCC(=O)NC(=S)Nc1ccc2oc(-c3ccc(OC)cc3)nc2c1	6.14
COc1ccc(NC(=O)c2c(C)nn(Cc3ccccc3)c2C)cc1S(=O)(=O)N(C)C	13.3
CN1CCC(N(C)S(=O)(=O)c2ccc(NC(=O)COc3ccc([N+](=O)[O-])cc3)cc2)CC1	12.2
Cc1ccccc1OCC(=O)Nc1ccc2oc(=O)ccc2c1	16.3

Structure (SMILES)	hERG current change (%, negative = inhibition) at 1uM [%]
CC(C)C(=O)NNC(=O)c1cc2sccc2s1	12.5
C/C=C/C=C\C(=O)Nc1cccc(C2=NOC3(C2)C[C@@H](C(N)=O)N(C(=O)c2cc([N+](=O)[O-])cc([N+](=O)[O-])c2C)C3)c1 (stereo partly shown)	13.5
CCc1ccccc1NC(=O)C1CCCN(S(=O)(=O)c2ccc3c(c2)CC(C)N3C(C)=O)C1 (stereo not shown)	12.9
O=C(CSc1nc2ccccc2c(=O)n1NC(=O)c1ccccc1)c1ccccc1	6.93
COc1ccc(C(C(=O)NC2CCCCC2)N(CC2CCCO2)C(=O)C2COc3ccccc3O2)cc1OC (stereo not shown)	-10.3
O=c1[nH]nc(Cc2ccc3ccccc3n2)c2ccccc12	10.5
CCC(C)NC(=O)CN1C(=O)c2cccc3cccc1c23 (stereo not shown)	3.39
O=C(CN1C(=O)C2C3C=CC(C3)C2C1=O)Nc1ccc2nccnc2c1 (stereo not shown)	8.96
CS(=O)(=O)N(CCc1ccccc1)CC(N)=O	6.92
COC(=O)c1c(NS(=O)(=O)c2ccccc2)csc1C	7.02
COc1ccc(-c2nc(SC)n(C(=O)c3ccco3)n2)cc1	16.2
Br.COc1ccc(-c2csc(NNC3=NCCCCC3)n2)cc1	14.7
CCOC(=O)CNC(=O)CSc1ccc2nnc(-c3ccc(F)cc3)n2n1	1.65
COc1cc(OC)cc(C(=O)NCCN2CCOCC2)c1.O=C(O)C(=O)O	8.34
CCn1c(CNC(=O)c2ccccc2Cl)cc2ccccc21	18.6
O=C(O)CC/C(=N\NC(=O)c1ccncc1)c1ccccc1	17.7
Cn1c(=O)[nH]c(=O)c2c1nc1n2CCCN1CCc1ccccc1	6.26
COc1cc2[nH]c(C(=O)NCc3ccccc3)cc2c(OC)c1OC.Cl	15.2
Cc1c(C(=O)O)sc(=S)n1-c1ccc(Cl)cc1	2.99
Cc1ccccc1C(=O)c1cccn1CC(=O)O	17.6
FC(F)(F)c1ccc(CNCCc2ccc3c(c2)OCO3)cc1.O=C(O)C(=O)O	-4.97
Cc1ccc(CN(CC(=O)NCc2ccc3c(c2)OCO3)C(=O)c2csnn2)cc1	-1.65

Structure (SMILES)	hERG current change (%, negative = inhibition) at 1uM [%]
CN(C)c1nc(OCCNC(=O)COc2ccc(Cl)cc2Cl)nc(N2CCCCC2)n1	13.2
O=C(NCC(c1cccs1)N1CCOCC1)c1cc(-c2ccc(F)cc2)nc2ccccc12 (stereo not shown)	-27.2
CCC(CC)c1nnc(NC(=O)CC(C)c2ccccc2)s1 (stereo not shown)	8.73
O=C(COc1ccc(Br)cc1)Nc1ccc(NC(=O)c2ccccc2)cc1	5.36
NC(=O)c1ccccc1NS(=O)(=O)Cc1ccc(Cl)cc1	0.398
Cc1ccc(NC(=S)Nn2cnnc2)c(C)c1	10.8
O=C(N/N=C/c1ccc(Br)cc1)c1cc[n+]([O-])cc1	3.7
C=CCn1c(SCC(=O)Nc2cc(NC(C)=O)ccc2OC)nnc1-c1cccnc1	3.44
O=C(Cn1cnc([N+](=O)[O-])n1)N/N=C/c1cccc2ccccc12	7.84
COc1ccc(NC(=O)N2CCCCCC2)cc1	18.6
COc1ccc2cc(C3CC(c4ccco4)=NN3C(=O)CCC(=O)O)c(Cl)nc2c1 (stereo not shown)	6.09
CC(C)OC(=O)CSc1nc2c(c(C3CC=CCC3)c1C#N)CCC2 (stereo not shown)	11.7
CCCN1C(=O)C2(OCCO2)c2cc(Cl)ccc21	16.5
O=C(COC(=O)/C=C/c1cccc(Br)c1)NC1CC1	6.09
O=C(Nc1ccc(-c2csc(-c3ccccc3)n2)cc1)c1ccccc1	18.8
Cc1cnc(C(=O)Oc2ccc(-c3ccccc3)cc2)cn1	9.15
CC#CCN1c2ccccc2[C@]23C[C@@H](C(=O)OC)N(C(=O)NC(C)(C)C)C2=NC(C(=O)OC)=C(C(=O)OC)[C@H]13	21.5
O=C(NC1CCCCC1)C(c1ccc2ncccc2c1)N(Cc1ccco1)C(=O)c1ccc2c(c1)OCCO2 (stereo not shown)	-6.75
Cc1cccc(CC2CC(=O)N(c3nc4ccccc4s3)C2=O)c1 (stereo not shown)	13.4
COc1ccc(CC(=O)Nc2sc(Cc3ccccc3)c(C)c2C(N)=O)cc1	-5.44
O=C(N/N=C/c1ccc(OC(=O)c2cccc(Br)c2)cc1)c1cccnc1	11.7
O=C(CSc1ccc(-c2ccco2)nn1)NCc1ccc(F)cc1	-0.888

— PMC4336329 (PLoS ONE, 2015)
